# Data taken from ChEMBL document CHEMBL4888484, “Replenishing the malaria drug discovery pipeline: Screening and hit evaluation of the MMV Hit Generation Library 1 (HGL1) against asexual blood stage Plasmodium falciparum ,using a nano luciferase reporter read-out” (2022).
# Among all 150,000 compounds or so, about 540 (0.36%) showed an effect of 50% or more. Some of the results follow.
# Tested on: Plasmodium falciparum
# Test: Primary screen in NF54 nanoGlo assay, in single point, at 2uM, 72h; a lower Z score goes with more inhibition
# Assay type: functional, Erythrocyte
# Conditions: timepoint 72 hour
SMILES,% Inhibition,Z score
O=C1OCCN1CCOc1cc(F)ccc1F,1%,-0.12
N#CCCN(Cc1cnns1)CC1CC1,-20%,2.85
COc1ccc2c(c1)[C@@H](NCCN(C)C)CCCO2,-12%,1.36
Cc1cccc(OCC(=O)Nc2ccc3c(c2)C(=O)N(C)c2ccccc2O3)c1,-8%,1.58
CCCN(CCC)S(=O)(=O)NCc1nc2c([nH]1)CCCC2,15%,-1.96
CCc1nsc(N2C[C@H](c3cnn(C)c3)C(C)(C)C2)n1,1%,-0.14
CCCN(CC#Cc1ccccc1)Cc1ccc(O)c(C(=O)O)c1,-14%,2.1
Cc1cc(C(=O)N2CCN(CC(=O)Nc3ccncc3)CC2)on1,1%,-0.08
CCc1ccc(CNC(=O)c2cnn3c4c(cnc23)C(=O)CC(C)(C)C4)cc1,-16%,2.26
CC[C@@H](C(=O)N(C)CCC1CCOCC1)n1cccn1,-19%,2.07
O=C(COc1ccccc1)Nc1nnc(-c2ccco2)o1,-11%,1.81
Cc1ccc(CN2C[C@H]3CN(Cc4ccc(C#N)cc4)CCN3C2=O)cc1,11%,-1.8
Cn1ccnc1CN1CCC[C@@](O)(CNS(=O)(=O)c2cccs2)CC1,36%,-4.56
CN(Cc1ccc(C(F)(F)F)nc1)CC1(CO)CCCC1,-2%,0.29
c1ccc(N2CCCC2)c(-c2nc([C@H]3CCOC3)no2)c1,-21%,2.24
C=CCCS(=O)(=O)N1CCC[C@H](c2nncn2C2CC2)C1,-4%,0.58
COc1cc(CN2CC(Oc3ccc(-c4noc(-c5ccncc5)n4)cc3)C2)cc(OC)c1,-12%,2.27
Cc1ccc(-c2ccc(CNCc3cnc4n3CCCC4)o2)cc1,1%,-0.07
CC(=O)NCc1ccc(N2CC[C@H](c3cccc(Cl)c3)C2)nc1,-10%,2.06
O=C(NCCc1nc2ccccc2[nH]1)N[C@@H]1CCc2cc(F)ccc21,-8%,1.44
COc1cc(Cl)c(CN2CCC3(CC2)C[C@@H]3C(=O)N2CCN(c3ccccc3)CC2)cc1OC,-1%,0.08
Cc1nc(CNC(=O)[C@H](C)n2ccnc2C)n(C)c1C,-7%,1.23

SMILES,% Inhibition,Z score
Cc1ccc2nc(C)n(C3CCN(C(=O)C(C)C)CC3)c2c1,-14%,2.71
CC(C)Cc1ncc(C(=O)Nc2csc(C(N)=O)c2)s1,-15%,2.43
Cc1nccc(N2CCC[C@@]3(CCC(=O)N(CCc4c[nH]cn4)C3)C2)n1,9%,-1.6
O=C(O)C1(C(=O)N2CCN(Cc3cc(Br)ccc3F)CC2)CCC1,-12%,1.16
Fc1ccc(-c2cnc3n2C[C@H](CNCCc2ccccc2)OC3)cc1,21%,-2.4
CC(NC(=O)C1CCCN1c1ncnc2sccc12)c1ncon1 (configuration not stated),-5%,0.65
CC(C)C[C@@H](CC(=O)O)NC(=O)c1ccc(O)c(Cl)c1,-4%,0.81
Cc1cc(N[C@H]2CCO[C@@H]2c2cnn(C)c2)nc(C)n1,-13%,1.72
Cc1ccccc1C(=O)NCC(=O)N(C)[C@@H](CO)C(C)(C)C,21%,-3.12
CCCN(CC(=O)N1CCn2cccc2[C@H]1c1cccc(Oc2ccccc2)c1)C(=O)Nc1ccc(C(F)(F)F)cc1,13%,-1.18
O=C(CNC(=O)NCCOc1ccc(F)c(F)c1)NC1CC1,-15%,2.08
CC(=O)N1CCC(C(=O)Nc2cccc(S(=O)(=O)N3CCCC3)c2)CC1,0%,0
C=CCN1C[C@H](C)N(C(=O)c2cccc(-c3cc(C)nc(C)c3)c2)C[C@@H]1C,-3%,0.64
CCc1ccc(S(=O)(=O)N2CCC3(CCc4nnc(COC)n4CC3)CC2)cc1,-4%,0.35
O=C(NC[C@H]1Cn2ccnc2CO1)c1ccc(Cl)cc1,-15%,1.89
CC(NC(=O)c1cn(C(F)(F)CO)nn1)C1CC2CCC1C2 (configuration not stated),-3%,0.37
COc1ccc(NC(=O)c2ccc3c(c2)CCCC3)cc1S(=O)(=O)N1CCCCC1,-36%,4.24
O=C(N[C@H]1CCCOC1)c1cccs1,1%,-0.12
CCCC[C@H](CC)C(=O)Nc1ccncc1,7%,-1.07
Cn1nc(C(=O)NC2CC2)c2c1CN(S(=O)(=O)Cc1ccccc1)C2,-13%,1.68
Cc1ccc(-c2ccc(C(=O)NCCc3n[nH]c(=O)n3C)cc2)c(C)n1,-5%,0.65
Fc1ccc(CC[C@H]2CCCN(CCc3ccccn3)C2)c(F)c1,-11%,1.08

SMILES,% Inhibition,Z score
CC(C)Cc1cc(CNC(=O)Nc2ccnn2Cc2cccc(F)c2)no1,1%,-0.09
O=S(=O)(NCCn1nccn1)c1ccccc1,-9%,1.33
CN1CCCC(CNC(=O)Nc2nncs2)C1c1cccs1 (configuration not stated),-3%,0.48
CN(C[C@H]1CCS(=O)(=O)C1)c1cnn(C)c1,12%,-1.21
COc1ccc(C(=O)N2CC(Nc3ncccn3)C2)cn1,-14%,2.12
C[C@H](OC(=O)c1noc2c1CCCC2)c1ccccn1,-12%,2.22
Cc1ccc(C(=O)Nc2nccnc2C(=O)N2CCC(Cc3ccccc3)CC2)cc1,-15%,2.23
COc1ccccc1[C@@H]1NC(=O)NC(C)=C1C(=O)N1CCc2[nH]cnc2C1,-8%,1.12
CCCCNC(=O)Cc1noc(C2CC2c2cccnc2)n1 (configuration not stated),-1%,0.14
O[C@H]1[C@H](NCc2ccccc2)[C@@H](c2cccnc2)C[C@H]1O,2%,-0.33
C[C@]1(CO)CCCCN1CC(=O)NCCc1ccc(S(N)(=O)=O)cc1,7%,-0.85
O=C1C2C3C=CC([C@@H]2C(=O)N1c1ccccc1)C31CC1 (some centres not stated),-2%,0.34
Cc1ccc(-c2cnc3ccc(F)cc3c2)cn1,-11%,1.36
CCOc1cc(C(=O)N[C@H]2CCCN(CCOC)C2)n[nH]1,-8%,1.1
Cc1ccc(CN(C)CC[C@H]2CCCCO2)cc1F,-13%,2.06
O=C(NCCCOC(F)F)NCc1ccccn1,0%,0.05
CNC(=O)c1c(F)cccc1Br,-11%,1.71
N#Cc1ccc(CNC[C@H](O)C2CCCCC2)cc1,3%,-0.39
O=C(N[C@@H](CCO)c1ccco1)c1cc(Cn2cccn2)on1,36%,-4.05
CC[C@]1(N2CCN(S(=O)(=O)c3ccc4c(c3)CCCC4)CC2)CCN(C(=O)C(C)C)C1,-5%,0.46
O=C(CN1N=C(c2nc(-c3ccccc3)no2)CCC1=O)Nc1ccc(Cl)c(Cl)c1,29%,-3.24
COCCN(C)c1ccc(CNc2nncn2-c2ccccc2)cn1,-7%,1.06

SMILES,% Inhibition,Z score
COc1ccc(OC)c(-c2cc(CN(Cc3ccco3)C(=O)c3ccc(Cl)cc3)no2)c1,-14%,2.29
CCN(C(=O)CN1CCO[C@@H](CN(C)C)C1)C1=CCCCC1,-7%,1.04
CCS(=O)(=O)N1CC[C@H](c2ncc(C)n2Cc2ccccc2)C1,-5%,0.75
O=C(NC1=CC=CN=CO1)Nc1ccccc1,-2%,0.42
Cc1[nH]c2c(C)cccc2c1CN1CCC[C@@](CO)(Cc2ccccc2F)C1,-12%,1.49
CCOC(=O)N[C@@H](CNCc1c(C)cc(C)cc1C)C1CC1,6%,-0.65
O=C(Nc1ccc(F)cc1Nc1ccccc1F)c1cc[nH]c(=O)c1,-1%,0.16
CC(C)(C)OC(=O)N1CCC(c2n[nH]c3c2COCC3)CC1,-7%,1.08
C[C@H]1CCCN1C(=O)CCN1CCN(c2ncnc3sccc23)CC1,-8%,1.29
Cc1ccc(C#N)c(N2CCC[C@H](C(=O)N3CCOC4(CCCCCC4)C3)C2)n1,-11%,2.04
Cc1cnc(CNS(=O)(=O)c2ccc(OCC(F)F)cc2)o1,-7%,0.91
CCC1CN(Cc2cnc(C3CC3)nc2)CC(C)S1(=O)=O (configuration not stated),-1%,0.12
COc1ccc(OC)c(CNc2nccc(N(C)C)n2)c1,-7%,0.57
CCNC(=O)N1CCc2nc(N3CCN(c4ccc(C)cc4)CC3)nc(N(C)C)c2C1,-2%,0.29
C=Cc1cccc(-c2cc(-c3ccccn3)nc(N)c2C#N)c1,-7%,1.26
O=S(=O)(c1cccc2cccnc12)N1C[C@@H]2CCCN2c2cc(C(F)(F)F)ccc21,-10%,1.53
CC(C)[C@@]1(O)CN(c2nccs2)C[C@@H]1C,-6%,1.19
CCOc1ccc(N2C[C@@H](c3nnc(NC(=O)Cc4ccc(OC)cc4)o3)CC2=O)cc1,2%,-0.23
FC(F)(F)c1cc(NCc2nnc3n2CCCCC3)ccn1,-12%,1.26
Cc1cc(N(C)C(=O)[C@H]2CCC(=O)N(c3cccc(F)c3)C2)ccn1,-6%,0.88
